From article PMC2758704
These are yes or no findings as the source states them, for the method shown. In cells and extracts the contact can be indirect. Some entries that bind do so weakly or less than the wild type. For part of these data: Where a sequence is shown, tags or fusion partners need not be part of it.

Chains of the proteins cited; added tags and fusions are not shown.
UniProt P03129: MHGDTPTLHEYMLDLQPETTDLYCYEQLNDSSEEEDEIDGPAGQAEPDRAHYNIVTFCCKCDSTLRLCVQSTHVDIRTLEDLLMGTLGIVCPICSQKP
UniProt P18754: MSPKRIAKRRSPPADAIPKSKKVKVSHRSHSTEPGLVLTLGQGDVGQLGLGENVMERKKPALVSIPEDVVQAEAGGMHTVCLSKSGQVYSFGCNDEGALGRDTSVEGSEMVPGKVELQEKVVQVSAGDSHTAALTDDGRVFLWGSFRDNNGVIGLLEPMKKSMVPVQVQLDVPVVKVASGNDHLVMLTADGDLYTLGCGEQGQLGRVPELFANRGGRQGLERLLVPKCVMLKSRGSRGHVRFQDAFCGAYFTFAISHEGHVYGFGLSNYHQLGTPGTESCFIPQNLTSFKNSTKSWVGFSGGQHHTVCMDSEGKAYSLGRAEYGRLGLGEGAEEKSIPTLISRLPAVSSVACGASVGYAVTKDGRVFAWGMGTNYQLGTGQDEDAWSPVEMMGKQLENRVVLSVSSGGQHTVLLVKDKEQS
UniProt P09211: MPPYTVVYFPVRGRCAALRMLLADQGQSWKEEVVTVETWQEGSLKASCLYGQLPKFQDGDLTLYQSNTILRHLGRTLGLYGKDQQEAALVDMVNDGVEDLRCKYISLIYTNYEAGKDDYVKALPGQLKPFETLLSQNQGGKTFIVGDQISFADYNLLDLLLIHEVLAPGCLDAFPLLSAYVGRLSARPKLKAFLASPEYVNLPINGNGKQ
UniProt P06788: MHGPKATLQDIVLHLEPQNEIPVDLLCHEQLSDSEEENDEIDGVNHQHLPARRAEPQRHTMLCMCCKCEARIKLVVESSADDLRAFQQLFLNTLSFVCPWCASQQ

Columns and labels:
[1] = biological target: HPV-16 E7 expressed endogenously in CaSki and SiHa cells (Human Papillomavirus 16 (HPV-16) (endogenous in CaSki and SiHa)) (UniProt P03129); experiment: co-IP; cell lysates (50 mM Tris-Cl pH 7.4, 5 mM EDTA, 250 mM NaCl, 50 mM NaF, 0.1% Triton X-100); immunoprecipitation with anti-T7 Tag, anti-HPV-16 E7, anti-HA or anti-GSTP1 antibody and protein A- or G-Sepharose; Western blot
[2] = biological target: N-6His-RCC1 recombinant protein (regulator of chromosome condensation 1) (UniProt P18754); experiment: pull-down; Ni-NTA agarose beads coupled to 4 µg of recombinant N-6His GSTP1 or N-6His RCC1; 35S-labelled in vitro translated E7 proteins added; SDS-PAGE and autoradiography; only the target purified
[3] = biological target: N-6His-GSTP1 recombinant protein (human) (UniProt P09211); experiment: as above
[4] = biological target: T1, recombinant S. japonicum GST-pRb protein (human) (UniProt P06400); experiment: pull-down; glutathione-Sepharose 4B coupled to 1 µg of S. japonicum GST-pRb or S. japonicum GST; 35S-cysteine-labelled in vitro translated E7 proteins added; SDS-PAGE and autoradiography; only the target purified
T1 sequence: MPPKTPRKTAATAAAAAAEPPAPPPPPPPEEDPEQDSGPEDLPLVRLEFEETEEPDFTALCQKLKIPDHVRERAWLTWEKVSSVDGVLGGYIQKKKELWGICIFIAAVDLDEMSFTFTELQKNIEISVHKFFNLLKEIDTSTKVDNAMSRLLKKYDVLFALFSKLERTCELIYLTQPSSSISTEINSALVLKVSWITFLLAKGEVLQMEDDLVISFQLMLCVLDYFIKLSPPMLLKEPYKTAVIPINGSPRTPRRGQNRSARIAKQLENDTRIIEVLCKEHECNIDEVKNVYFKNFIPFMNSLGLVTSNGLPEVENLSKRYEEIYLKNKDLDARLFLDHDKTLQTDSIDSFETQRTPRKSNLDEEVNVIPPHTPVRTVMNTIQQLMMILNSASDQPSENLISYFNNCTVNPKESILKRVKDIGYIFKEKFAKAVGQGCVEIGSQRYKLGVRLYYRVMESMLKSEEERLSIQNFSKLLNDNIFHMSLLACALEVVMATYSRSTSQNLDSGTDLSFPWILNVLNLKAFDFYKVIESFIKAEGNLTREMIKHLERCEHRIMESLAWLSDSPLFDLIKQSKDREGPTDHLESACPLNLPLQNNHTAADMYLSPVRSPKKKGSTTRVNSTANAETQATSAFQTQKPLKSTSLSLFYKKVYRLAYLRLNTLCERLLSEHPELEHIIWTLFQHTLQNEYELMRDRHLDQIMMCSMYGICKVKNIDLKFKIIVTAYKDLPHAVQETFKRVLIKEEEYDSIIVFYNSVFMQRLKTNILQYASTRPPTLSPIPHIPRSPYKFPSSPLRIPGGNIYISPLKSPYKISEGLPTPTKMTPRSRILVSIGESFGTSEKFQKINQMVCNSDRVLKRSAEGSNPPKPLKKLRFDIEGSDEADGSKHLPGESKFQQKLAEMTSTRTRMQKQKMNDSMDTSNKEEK

Substance | binding [1] | binding [2] | binding [3] | binding [4]
glutathione S-transferase P1-1 (GSTP1), endogenous (from UniProt P09211 1-210) | binds | – | – | –
radiolabeled IVT HPV-18 E7 (from UniProt P06788 1-105) | – | no binding | binds | –
radiolabeled in vitro translated (IVT) HPV-16 E7 (from UniProt P03129 1-98) | – | no binding | binds | binds
